Molecules are shown by their SMILES. In all, about 48,000 compounds went through this assay and about 550 (1.1%) were called active. About 4% were inconclusive and are not listed. Rule as the data show it: active = potency below about 15 µM; inconclusive = mostly about 16 µM to 33 µM; inactive = weaker than that. The list shows a part of the results.
Potency is read from the fitted curve at half-maximal effect.

Sequence of UniProt P04062 (P04062 whole entry, looked up): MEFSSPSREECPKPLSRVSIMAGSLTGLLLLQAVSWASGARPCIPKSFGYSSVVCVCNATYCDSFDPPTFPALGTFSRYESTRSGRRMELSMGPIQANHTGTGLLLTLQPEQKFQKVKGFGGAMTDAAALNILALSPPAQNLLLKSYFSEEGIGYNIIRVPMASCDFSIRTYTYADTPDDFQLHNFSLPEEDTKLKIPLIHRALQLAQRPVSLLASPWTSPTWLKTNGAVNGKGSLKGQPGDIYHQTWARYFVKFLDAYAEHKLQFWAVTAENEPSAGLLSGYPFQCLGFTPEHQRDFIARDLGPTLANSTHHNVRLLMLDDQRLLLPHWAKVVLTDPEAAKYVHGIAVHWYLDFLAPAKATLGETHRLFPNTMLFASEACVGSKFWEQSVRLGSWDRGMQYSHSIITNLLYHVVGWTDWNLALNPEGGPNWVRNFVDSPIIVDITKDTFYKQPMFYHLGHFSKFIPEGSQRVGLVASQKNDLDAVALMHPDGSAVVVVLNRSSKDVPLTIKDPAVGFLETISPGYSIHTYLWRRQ

The target in the experiment is Lysosomal acid glucosylceramidase (Homo sapiens) (UniProt P04062). Description: Glucocerebrosidase.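 Also: the screen sought inhibitors.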 To be noted: purified enzyme, resorufin glucoside fluorescence (screen aimed at inhibitors), 20 min; series mostly up to 77 µM. In a few lines:
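Compounds titrated against 0.2 nM normal enzyme, 30 uM resorufin beta-D-glucopyranoside substrate, citrate/phosphate buffer with taurocholate and tween-20, pH 5.9. Reaction ran 20 min at room temperature; fluorescence (Ex 548/Em 600) gave AC50.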
As to `COc1cc2[nH]c3c(N4CCC(C(N)=O)CC4)ncnc3c2cc1OC`, the Potency is inactive: > 76.9 µM. Consider `N#Cc1ccccc1NC(=O)COC(=O)c1ccc(S(=O)(=O)N2CCCC2)cc1`, for which the Potency is inactive: > 76.9 µM.

Regarding `CCOC(=O)c1sc(NC(=O)CSc2nncs2)c(C(=O)OCC)c1C`, the Potency was active: 9.61 µM.

Consider `Cc1onc(-c2c(Cl)cccc2Cl)c1C(=O)NCCCN1CCOCC1`, for which the Potency is inactive: > 76.9 µM. Consider `N#Cc1sc2nc3c(c(-c4cccnc4)c2c1N)CCC3`, for which the Potency was inactive: > 76.9 µM. For the compound `C=CCN1C(=O)C2C(C(=O)NCc3ccccc3)C3(C)C=CC2(O3)C1C(=O)NC(C)(C)C` (stereo not given), the Potency is inactive: > 76.9 µM. The value for `CCOC(=O)C1=C(NC(=O)c2ccc(Br)o2)Nc2ccccc2N=C1` was inactive: > 76.9 µM. To `CCn1cc(C(=O)NCc2ccc(C)o2)c2cc(OC)c(OC)cc2c1=O` belongs inactive: > 76.9 µM; to `CCOC(=O)c1cnc2nc(COc3ccccc3)[nH]n2c1=O`, inactive: > 76.9 µM. To `CCOC(=O)CC(/C(C)=N\O)c1ccccc1` (stereo not given) belongs inactive: > 76.9 µM; to `COC(=O)[C@H](C)NC(=O)Nc1ccc(OC)cc1OC`, inactive: > 76.9 µM. For the compound `CC(=O)c1ccc(NC2OC(CO)C(O)C(O)C2O)cc1` (stereo not given), the Potency was inactive: > 76.9 µM. In the case of `O=C(c1ccco1)N1CCN(C(=O)c2cc(-c3ccccn3)nc3ccccc23)CC1`, the Potency was inactive: > 76.9 µM. Turning to `O=C(CCN1C(=O)c2ccccc2C1=O)Nc1ccc(S(=O)(=O)N2CCOCC2)cc1`, the Potency was inactive: > 76.9 µM. The value for `Cc1[nH]nc2c1C(c1cn[nH]c1-c1ccc(F)cc1)C(C#N)=C(N)O2` (stereo not given) was inactive: > 76.9 µM. As for `C=CCN(CC(=O)NCc1ccc(OC)cc1)C(=O)c1csnn1`, the Potency is inactive: > 76.9 µM. The value for `CCN1CCN(c2ncnc3c2sc2nc(N4CCOCC4)c4c(c23)CCC4)CC1` was inactive: > 76.9 µM; that for `CN(C)S(=O)(=O)c1ccc(N2CCCC2)c(C(=O)Nc2ccccc2N2CCOCC2)c1` was inactive: > 76.9 µM. To `COc1cc2c(cc1OC)-c1cc(NC3CC3)nc(=O)n1CC2` belongs inactive: > 76.9 µM; to `Cc1ccc2[nH]c3c(=O)n(CCCN4CCN(C)CC4)cnc3c2c1`, inactive: > 76.9 µM. On to `c1cc(-c2nnc3n2CCCCC3)ccn1`, for which the Potency was inactive: > 76.9 µM.

With `COCc1[nH]nc2c1C(C1C=CCCC1)C(C#N)=C(N)O2` (stereo not given), the Potency is inactive: > 76.9 µM.

On to `CCC(C(=O)O)n1c(C(F)(F)F)nc2ccccc21` (stereo not given), for which the Potency is inactive: > 76.9 µM. The value for `COC(=O)Nc1ccc(OCc2ccccc2)cc1` was inactive: > 76.9 µM. To `CCn1c(NCc2ccc(N(C)C)cc2)nc2ccccc21` belongs inactive: > 76.9 µM.
